The campaign covered roughly 280,000 compounds. About 1,100 (0.39%) were called active. Inconclusive results, whose numbers are uncertain, are shown with a selection of clear calls. Calls come from the whole dose curve; as a rule, active = well fitted inhibition curve with a large enough effect; inconclusive = small, poorly fitted or top-dose-only effect, or effect the other way; inactive = flat fitted curve, though single readings scatter. Potencies of inconclusive entries are left out as doubtful fits.
Target: Microtubule-associated protein tau (Homo sapiens) (UniProt P10636)
Experiment: qHTS for Inhibitors of Tau Fibril Formation, Fluorescence Polarization; note: nearly all actives have a fitted effect of over 55% in size
Conditions: K18 P301L tau heparin fibrillization, Alexa594 FP, 6 h; series mostly up to 57.7 µM; activity, negative = inhibition: at the top concentration
How it was run: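 Quantitative HTS format: compounds meet 15 uM recombinant K18 P301L tau and Alexa 594-tau tracer in 100 mM sodium acetate pH 7; 20 uM heparin triggers fibrillization at 37 C over 6 hr; FP gives the signal.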
% is set by controls: 0 for no effect and ±100 for the full control effect; potency is the fitted concentration of half-maximal effect; tags give direction and shape of the fitted curve.

Sequence of UniProt P10636 (P10636 whole entry, looked up): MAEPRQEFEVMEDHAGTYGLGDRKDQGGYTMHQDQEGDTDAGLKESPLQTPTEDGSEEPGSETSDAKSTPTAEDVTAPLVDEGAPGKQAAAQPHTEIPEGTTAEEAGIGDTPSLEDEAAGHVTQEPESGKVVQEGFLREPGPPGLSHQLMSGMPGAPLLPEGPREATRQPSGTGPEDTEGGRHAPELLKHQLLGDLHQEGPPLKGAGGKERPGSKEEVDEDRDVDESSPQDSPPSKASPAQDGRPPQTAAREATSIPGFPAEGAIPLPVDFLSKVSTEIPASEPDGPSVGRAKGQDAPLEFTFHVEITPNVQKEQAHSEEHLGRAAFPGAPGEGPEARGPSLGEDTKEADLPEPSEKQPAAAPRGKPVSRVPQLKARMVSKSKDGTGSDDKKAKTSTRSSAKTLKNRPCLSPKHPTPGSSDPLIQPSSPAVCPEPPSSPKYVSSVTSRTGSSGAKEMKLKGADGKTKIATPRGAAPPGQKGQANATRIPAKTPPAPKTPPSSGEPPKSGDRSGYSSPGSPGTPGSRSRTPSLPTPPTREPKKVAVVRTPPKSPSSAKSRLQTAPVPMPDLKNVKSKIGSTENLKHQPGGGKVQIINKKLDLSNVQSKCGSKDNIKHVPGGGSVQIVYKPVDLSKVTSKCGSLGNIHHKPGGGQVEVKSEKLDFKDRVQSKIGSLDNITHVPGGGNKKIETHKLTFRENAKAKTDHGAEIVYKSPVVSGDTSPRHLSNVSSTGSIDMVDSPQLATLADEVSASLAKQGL

| Structure (SMILES) | Potency | activity, negative = inhibition |
| --- | --- | --- |
| O=C(NC1CCCCCC1)c1ccc2c(c1)sc1nc(-c3ccccc3)cn12 | inconclusive [inhibitor, single point] |  |
| COc1c(O)c(O)cc2c1oc1c3ccccc3oc(=O)c21 | inconclusive [inhibitor, partial curve] |  |
| Cc1ccc(S(=O)(=O)NN2C(=O)c3ccccc3NC2c2ccccn2)cc1 (configuration not stated) | inconclusive [inhibitor, single point] |  |
| CCn1c(O)c(/C=N/NC(=O)c2ccncc2)c(=O)n(CC)c1=S |  | inactive: 1.84% |
| COc1cc(C=C(c2nc3ccccc3s2)c2nc3ccccc3s2)ccc1O | inconclusive [activator, partial curve] |  |
| Cc1cc(OCC(=O)Nc2ccc(Br)cc2)cc2c1C(=O)CC(C)(C)O2 | inconclusive [inhibitor, single point] |  |
| COc1ccc(C(=O)Nc2ccc(-c3cc4ccccc4oc3=O)c(C)c2)cc1OC | inconclusive [inhibitor, partial curve] |  |
| CC(C)CCNC(=O)C1CCN(C(=O)N2CCOc3ccc(Cl)cc32)CC1 | inconclusive [inhibitor, single point] |  |
| COc1cc(NC(=O)c2ccccc2)c(OC)cc1NC(=O)CN1CCN(c2ccccn2)CC1 | inconclusive [activator, full curve, poor fit] |  |
| Cc1ccc(-c2nnc(Nc3ccc(Cl)c(Cl)c3)c3ccccc23)cc1S(=O)(=O)NCCO | inconclusive [inhibitor, partial curve] |  |
| COc1ccc(CCCc2n[nH]c(=S)o2)cc1 |  | inactive: -15.7% |
| Cc1c(C(=O)Nc2ccc(C(C)C)cc2)sc2nc[nH]c(=O)c12 | inconclusive [inhibitor, single point] |  |
| CC1CCN(S(=O)(=O)c2ccc3c(c2)CCN3C(=O)Nc2ccc(Br)cc2)CC1 | inconclusive [inhibitor, partial curve] |  |
| Cc1ccc(/C=N/NC(=O)C2=NNC(c3ccccc3)(c3ccccc3)C2)c(O)c1 | inconclusive [inhibitor, single point] |  |
| COC(=O)CCC(=O)OC1(C)C(=O)C2=CN(CCCOC(C)C)C(c3ccc(OC)cc3)=CC2=C(Br)C1=O (configuration not stated) | inconclusive [inhibitor, partial curve] |  |
| Cc1c(O)c(CN2CCCC2)cc2c3c(c(=O)oc12)CCC3 | inconclusive [inhibitor, partial curve, poor fit] |  |
| CC(C)=NOC[C@@H](C)[C@H](OCc1ccccc1)C(C)C | inconclusive [inhibitor, single point] |  |
| CC(C)(C)NC(=O)COC(=O)Cc1ccc(Cl)cc1 | inconclusive [inhibitor, partial curve, poor fit] |  |
| COc1ccc(C2=CC(c3ccc(OC)c(OC)c3)NC(=S)N2)cc1 (configuration not stated) | inconclusive [inhibitor, partial curve] |  |
| Fc1ccc(Cc2cn3cc(-c4ccccc4)nc3s2)cc1 | inconclusive [inhibitor, full curve, poor fit] |  |
| CC(C)NC(=O)NS(=O)(=O)c1cnccc1N1CCCCC1 | inconclusive [inhibitor, single point] |  |

| Structure (SMILES) | Potency | activity, negative = inhibition |
| --- | --- | --- |
| Nc1c(C(=O)Nc2ccccc2F)sc2nc(-c3ccco3)ccc12 |  | inactive: -0.0467% |
| COc1ccc(S(=O)(=O)N2CCOCC2)cc1C(=O)Nc1cc(C)on1 | inconclusive [inhibitor, single point] |  |
| CCOC(=O)c1ccc(Nc2nc(-c3cccnc3)nc3ccccc23)cc1 | inconclusive [inhibitor, partial curve] |  |
| [O-]/C(=C(\C(=S)NCc1ccccc1)[n+]1ccccc1)c1ccc(Cl)cc1 |  | inactive: -7.27% |
| O=C(CCSCCC(=O)NCc1cccs1)NCc1cccs1 | inconclusive [inhibitor, single point] |  |
| COc1cccc(CN2CCNC(=O)C2CC(=O)NCc2cc(C(C)C)no2)c1 (configuration not stated) |  | inactive: -2.46% |
| Cc1cc(O)c(C(c2ccccc2)N2CCN(C)CC2)c(=O)n1Cc1ccco1 (configuration not stated) | inconclusive [inhibitor, single point] |  |
| Cc1ccsc1C1Nc2ccccc2C(=O)N1O (configuration not stated) |  | inactive: 1.84% |
| COCCN(C(=O)CCc1ccc(OC)cc1)c1nnc(-c2ccncc2)s1 |  | inactive: 3.8% |
| Cc1[nH]c2ccccc2c1[C@H]1[C@@H](CC#N)C1(C)C | inconclusive [activator, single point] |  |
| Cc1cc(NC(=O)c2ccccc2F)n(-c2nc3ccccc3[nH]2)n1 |  | inactive: -4.14% |
| Cc1nc(NC(=O)COc2ccccc2)sc1C(=O)Nc1cccc(Cl)c1 | inconclusive [inhibitor, single point] |  |
| Cc1oc2cc(O)cc(C)c2c(=O)c1-c1cnn(-c2ccccc2)c1 | inconclusive [inhibitor, partial curve, poor fit] |  |
| O=c1[nH]c2ccc(Br)cc2c(-c2ccccc2)c1CN1CCOCC1 | inconclusive [inhibitor, single point] |  |
| CCc1ccc(NCc2cc3cc(OC)c(OC)cc3n(CC(=O)Nc3cc(C)ccc3C)c2=O)cc1 |  | inactive: 16.4% |
| Cc1cccc(C)c1OCc1nnc(NC(=O)CSc2ccc(Cl)cc2)s1 | inconclusive [inhibitor, partial curve] |  |
| CN(C1=C(N2CCOCC2)C(=O)c2ccccc2C1=O)c1ccccc1 |  | inactive: -12% |
| O=C(NCc1cccc(Br)c1)C1CC(c2ccccc2C(F)(F)F)=NO1 (configuration not stated) |  | inactive: 5.99% |
| CC(=O)c1ccc(NC(=O)C(C)OC(=O)c2ccc(NS(=O)(=O)c3ccc(F)c(F)c3)cc2)cc1 (configuration not stated) | inconclusive [inhibitor, single point] |  |
| CC(C)(C)c1ccc(-c2cc(C(=O)NNC(=O)Nc3ccccc3)c3ccccc3n2)cc1 | inconclusive [inhibitor, partial curve] |  |
| Cc1[nH][nH]c(=O)c1C(c1c(C)[nH][nH]c1=O)c1cn(Cc2cccc3ccccc23)c2ccccc12 | inconclusive [inhibitor, partial curve] |  |

— PubChem BioAssay AID1468 (National Center for Advancing Translational Sciences (NCATS), 2008)
